# Measured values: the supplement of paper PMC9135407
# “And” between values parts separate entries of the source, which are not always exact repeats. Equal values may be shown once. Where a name gives a salt, the structure may show the parent alone. In all, about 5,800 compounds went through this assay and about 620 (11%) showed activity.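 The calls were made as follows: active = score above a cut-off or among the top three wells of a plate; in these data no inactive exceeds 0.85.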 This is a selection; strong and weak results do not stand in their true shares.
# Tested on: primary human hepatic stellate cells (donor 1)
# Assay: scaled lipid accumulation score (0 = DMSO-like, 1 = nortriptyline-like); higher = stronger HSC inactivation (lipid re-accumulation), active = hit call of the paper
# Conditions: 48 h
# [1] = library stock concentration: 3.33 mM
# [2] = library stock concentration: 10 mM
# [3] = library stock concentration: 5.9 mM
# [4] = library stock concentration: 80 uM
# [5] = library stock concentration: 400 uM
# [6] = library stock concentration: 2 mM
# [7] = library stock concentration: 1 mM
smiles,measurement,setting,value
CCOC(=O)[C@H](CCc1ccccc1)N[C@H]1CCc2ccccc2N(CC(=O)O)C1=O [Benazepril HCl],scaled lipid accumulation score,[1],inactive: ≤ 0
same,scaled lipid accumulation score,[2],inactive: ≤ 0
CCOC(=O)[C@H](CCc1ccccc1)N[C@H]1CCc2ccccc2N(CC(=O)O)C1=O [Benazepril hydrochloride],scaled lipid accumulation score,[2],inactive: ≤ -0.027 and inactive: 0.038
CCOC(=O)[C@H](CCc1ccccc1)N[C@H]1CCc2ccccc2N(CC(=O)O)C1=O,scaled lipid accumulation score,[2],inactive: ≤ 0
COC1=C(OC)C(=O)C(CCCCCCCCCCO)=C(C)C1=O [Idebenone],scaled lipid accumulation score,[1],inactive: ≤ 0
same,scaled lipid accumulation score,[3],inactive: 0.007
same,scaled lipid accumulation score,[2],inactive: ≤ 0
Cc1nc(NC(=O)N2CCC[C@H]2C(N)=O)sc1-c1csc(C(C)(C)C)n1,scaled lipid accumulation score,[4],inactive: ≤ -0.016
same,scaled lipid accumulation score,[5],inactive: ≤ -0.016
same,scaled lipid accumulation score,[6],inactive: ≤ -0.016
same,scaled lipid accumulation score,[1],inactive: ≤ 0
same,scaled lipid accumulation score,[2],inactive: ≤ 0 and inactive: ≤ -0.016
O=C1CCC(c2ccc(-n3ccnc3)cc2)=NN1 [Imazodan],scaled lipid accumulation score,[2],inactive: ≤ -0.07
C=CC(=O)Nc1cc(NC(=O)c2ccc(C)c(NC(=O)c3ccno3)c2)cc(C(F)(F)F)c1,scaled lipid accumulation score,[4],inactive: ≤ 0
same,scaled lipid accumulation score,[5],inactive: ≤ 0
same,scaled lipid accumulation score,[6],inactive: ≤ 0
same,scaled lipid accumulation score,[2],inactive: 0.311
O=C(NCCCNc1nc(Nc2cccc(NC(=O)N3CCCC3)c2)ncc1I)c1cccs1,scaled lipid accumulation score,[2],active: 0.937
NCC(O)c1ccc(O)c(O)c1 (racemic),scaled lipid accumulation score,[2],inactive: ≤ 0
CC(C)CCCCCCC/C=C/C(=O)O [trans-.DELTA.2-11-methyl-Dodecenoic Acid],scaled lipid accumulation score,[7],inactive: ≤ 0
CCOC(=O)OC(C)OC(=O)[C@@H]1N2C(=O)[C@@H](NC(=O)[C@H](N)c3ccccc3)[C@H]2SC1(C)C (stereo not given in full) [Bacampicillin hydrochloride],scaled lipid accumulation score,,inactive: ≤ 0
same,scaled lipid accumulation score,library stock concentration: 4 mM,inactive: ≤ 0
CO/N=C(\C(=O)N[C@@H]1C(=O)N2C(C(=O)O)=C(CSc3nc(=O)c(O)nn3C)CS[C@H]12)c1csc(N)n1 [Ceftriaxone sodium trihydrate],scaled lipid accumulation score,library stock concentration: 3.1 mM,inactive: ≤ 0
same,scaled lipid accumulation score,[2],inactive: ≤ -0.027 and inactive: 0.254
CO/N=C(\C(=O)N[C@@H]1C(=O)N2C(C(=O)O)=C(CSc3nc(=O)c(O)nn3C)CS[C@H]12)c1csc(N)n1 [Ceftriaxone sodium],scaled lipid accumulation score,[2],inactive: ≤ 0
Oc1ccccc1O [Pyrocatechol],scaled lipid accumulation score,[2],inactive: 0.09
COc1cc(OC)c2c(=O)[nH]c(-c3cc(C)c(OCCO)c(C)c3)nc2c1,scaled lipid accumulation score,[1],inactive: ≤ -0.009
same,scaled lipid accumulation score,[2],inactive: 0.135
O=C(c1cccc(Cl)c1F)N1CCN(Cc2cccc(Nc3nccs3)n2)CC1,scaled lipid accumulation score,[1],inactive: ≤ 0
same,scaled lipid accumulation score,[2],inactive: 0.453
CC(C)[C@H]1C(=O)N[C@@H](CCCNC(=N)N)C(=O)NCC(=O)N[C@@H](CC(=O)O)C(=O)N[C@H](Cc2ccccc2)C(=O)N1C [Cilengitide],scaled lipid accumulation score,[1],inactive: 0.272
same,scaled lipid accumulation score,[2],inactive: 0.551
FC(F)(F)c1ccccc1-n1ccnc1 [1-[2-(Trifluoromethyl)phenyl]imidazole],scaled lipid accumulation score,[2],inactive: ≤ 0
O=C(Cc1cccs1)N[C@@H]1C(=O)N2C(C(=O)[O-])=C(C[n+]3ccccc3)CS[C@H]12 [Cephaloridine],scaled lipid accumulation score,[2],inactive: ≤ 0
CCCCOC(=O)NS(=O)(=O)c1sc(CC(C)C)cc1-c1ccc(Cn2c(CC)nc3c(C)cc(C)nc32)cc1,scaled lipid accumulation score,[2],inactive: 0.173
CSc1ccc2c(c1)C(N1CCN(C)CC1)Cc1ccccc1S2.O=C(O)/C=C\C(=O)O (stereo not given) [Methiothepin maleate],scaled lipid accumulation score,[2],active: 1.41
Cl.C(=C\CCNC)(/c1c(cccc1)CC2)\c3c2cccc3 [Nortriptyline hydrochloride],scaled lipid accumulation score,,active: 1.13
NC1(C(=O)O)CCCC1 [Cycloleucine],scaled lipid accumulation score,[2],inactive: ≤ 0
NCCCC[C@H](N[C@@H](CCc1ccccc1)C(=O)O)C(=O)N1CCC[C@H]1C(=O)O [Lisinopril],scaled lipid accumulation score,,inactive: ≤ 0
same,scaled lipid accumulation score,library stock concentration: 4.9 mM,inactive: 0.025 and inactive: ≤ 0
same,scaled lipid accumulation score,[2],inactive: ≤ 0
COc1ccc(NC(=O)c2ccc(-c3ccc(-c4noc(C)n4)cc3C)cc2)cc1OCCN(C)C,scaled lipid accumulation score,[2],inactive: 0.491
CC(C)(C)NC[C@H](O)COc1nsnc1N1CCOCC1 [(S)-Timolol maleate],scaled lipid accumulation score,[2],inactive: ≤ 0
CC(C)(C)NC[C@H](O)COc1nsnc1N1CCOCC1 [Timolol maleate (s)],scaled lipid accumulation score,library stock concentration: 6.3 mM,inactive: ≤ -0.006
CC(C)(C)NC[C@H](O)COc1nsnc1N1CCOCC1 [Timolol Maleate],scaled lipid accumulation score,[1],inactive: ≤ 0
same,scaled lipid accumulation score,[2],inactive: ≤ -0.001
CC(C)(C)NC[C@H](O)COc1nsnc1N1CCOCC1 [Timolol maleate salt],scaled lipid accumulation score,,inactive: ≤ 0
CC(C)(C)NC[C@H](O)COc1nsnc1N1CCOCC1 [Timolol maleate],scaled lipid accumulation score,[2],inactive: ≤ 0
CC(C)(C)NC[C@H](O)COc1nsnc1N1CCOCC1 [S(-)-Timolol maleate],scaled lipid accumulation score,[2],inactive: ≤ 0 and inactive: 0.026
C[C@]12CCC(=O)C=C1CC[C@@H]1[C@@H]2[C@@H](O)C[C@@]2(C)[C@H]1CC[C@]2(O)C(=O)COC(=O)CCC(=O)O,scaled lipid accumulation score,[2],inactive: 0.064
C[C@]12CCC(=O)C=C1CC[C@@H]1[C@@H]2[C@@H](O)C[C@@]2(C)[C@H]1CC[C@]2(O)C(=O)COC(=O)CCC(=O)O [Hydrocortisone hemisuccinate],scaled lipid accumulation score,[2],inactive: ≤ 0
c1ccc2c(c1)CCC[C@H]2Nc1nc2ccccc2[nH]1 [NS8593 hydrochloride],scaled lipid accumulation score,[2],inactive: 0.362
O=C(Nc1cccc2c(=O)cc(-c3nnn[nH]3)oc12)c1ccc(OCCCCc2ccccc2)cc1 [Pranlukast],scaled lipid accumulation score,[7],inactive: ≤ 0
same,scaled lipid accumulation score,[1],inactive: ≤ 0
same,scaled lipid accumulation score,[2],inactive: ≤ 0
Cn1c(=O)c2nc[nH]c2n(C)c1=O [Theophylline monohydrate],scaled lipid accumulation score,,inactive: ≤ 0
Cn1c(=O)c2nc[nH]c2n(C)c1=O [Theophylline],scaled lipid accumulation score,[2],inactive: ≤ 0
C=C1c2cccc(O)c2C(=O)C2=C(O)[C@]3(O)C(=O)C(C(N)=O)=C(O)[C@@H](N(C)C)[C@@H]3[C@@H](O)[C@H]12 [Methacycline hydrochloride],scaled lipid accumulation score,,inactive: 0.049
same,scaled lipid accumulation score,[2],inactive: ≤ 0
COc1cc2cc3c4cc(OC)c(OC)cc4cc[n+]3c(C)c2cc1OC [Coralyne chloride hydrate],scaled lipid accumulation score,,inactive: 0.028
COc1cc2cc3c4cc(OC)c(OC)cc4cc[n+]3c(C)c2cc1OC [Coralyne chloride],scaled lipid accumulation score,[2],inactive: ≤ 0
O=C(N[C@@H](Cc1ccccc1)C(=O)CCl)OCc1ccccc1 [Z-L-Phe chloromethyl ketone],scaled lipid accumulation score,[2],inactive: 0.477
Cc1scc2c1N(C(=O)CN1CCN(C)CC1)c1ccccc1NC2=O [Telenzepine dihydrochloride],scaled lipid accumulation score,,inactive: ≤ 0
same,scaled lipid accumulation score,[2],inactive: 0.052 and inactive: 0.027
Cc1scc2c1N(C(=O)CN1CCN(C)CC1)c1ccccc1NC2=O [Telenzepine 2HCl],scaled lipid accumulation score,library stock concentration: 5.4 mM,inactive: 0.006
Cc1scc2c1N(C(=O)CN1CCN(C)CC1)c1ccccc1NC2=O [Telenzepine hydrochloride],scaled lipid accumulation score,[2],inactive: 0.084
Cc1cc2c(cc1Cl)N(C(=O)Nc1ccc(Oc3cccnc3C)nc1)CC2,scaled lipid accumulation score,[2],inactive: 0.832
COc1cc2nc(N3CCCN(C)CC3)nc(NC3CCN(Cc4ccccc4)CC3)c2cc1OC.Cl.Cl.Cl.O,scaled lipid accumulation score,[7],active: 0.804
"CN(C)CCC(c1ccc(Cl)cc1)c1ccccn1 (single isomer, unassigned; (+)) [(+)-Chlorpheniramine maleate]",scaled lipid accumulation score,[2],inactive: 0.803
COc1ccc(CN(CCN(C)C)c2ccccn2)cc1 [Mepyramine maleate],scaled lipid accumulation score,library stock concentration: 7 mM,inactive: ≤ -0.001
same,scaled lipid accumulation score,[2],inactive: 0.294
COc1ccc(CN(CCN(C)C)c2ccccn2)cc1 [Pyrilamine maleate],scaled lipid accumulation score,,inactive: 0.157
same,scaled lipid accumulation score,library stock concentration: 5 mM,inactive: ≤ 0
same,scaled lipid accumulation score,[2],inactive: 0.006 and inactive: 0.264
CCCNC(C)C(=O)Nc1ccccc1C (stereo not given) [Prilocaine hydrochloride],scaled lipid accumulation score,,inactive: ≤ 0
same,scaled lipid accumulation score,library stock concentration: 7.8 mM,inactive: ≤ 0
same,scaled lipid accumulation score,[2],inactive: ≤ 0 and inactive: ≤ -0.027
CCCNC(C)C(=O)Nc1ccccc1C (stereo not given) [Prilocaine],scaled lipid accumulation score,[1],inactive: ≤ 0
same,scaled lipid accumulation score,[2],inactive: ≤ 0
Nc1ncn([C@@H]2O[C@H](CO)[C@@H](O)[C@H]2O)c(=O)n1 [Azacitidine],scaled lipid accumulation score,[4],inactive: ≤ 0
same,scaled lipid accumulation score,[5],inactive: ≤ 0
same,scaled lipid accumulation score,[6],inactive: ≤ 0
same,scaled lipid accumulation score,[1],inactive: ≤ 0
same,scaled lipid accumulation score,[2],inactive: 0.002 and inactive: ≤ 0
Nc1ncn([C@@H]2O[C@H](CO)[C@@H](O)[C@H]2O)c(=O)n1 [5-azacytidine],scaled lipid accumulation score,[2],inactive: ≤ 0
Nc1ncn([C@@H]2O[C@H](CO)[C@@H](O)[C@H]2O)c(=O)n1 [5-Azacytidine],scaled lipid accumulation score,[2],inactive: 0.208
CC(COc1ccccc1)N(CCCl)Cc1ccccc1 (stereo not given) [Phenoxybenzamine hydrochloride],scaled lipid accumulation score,,inactive: 0.065
same,scaled lipid accumulation score,[3],inactive: ≤ 0
CC(COc1ccccc1)N(CCCl)Cc1ccccc1 (stereo not given) [Phenoxybenzamine HCl],scaled lipid accumulation score,[1],inactive: ≤ 0
same,scaled lipid accumulation score,library stock concentration: 6.6 mM,inactive: 0.025
same,scaled lipid accumulation score,[2],inactive: ≤ 0
CC(COc1ccccc1)N(CCCl)Cc1ccccc1 (stereo not given) [Phenoxybenzamine],scaled lipid accumulation score,library stock concentration: 16.5 mM,inactive: ≤ -0.012
CC(COc1ccccc1)N(CCCl)Cc1ccccc1 (stereo not given) [Dibenzyline],scaled lipid accumulation score,[2],inactive: 0.174
"CCCCCCCC/C=C/CCCCCCCC(=O)Nc1c(C(C)C)cccc1C(C)C [Oleic Acid-2,6-diisopropylanilide]",scaled lipid accumulation score,[7],inactive: ≤ 0
CNc1ncnc2c1ncn2[C@H]1C[C@H](OP(=O)(O)O)[C@@H](COP(=O)(O)O)O1,scaled lipid accumulation score,[2],inactive: 0.065
